In this assay the test system is Coxsackie B3. The assay can be described thus: Multicycle CPE reduction assay, Coxsackie B3. The note with it: Enterovirus B, incubation at 37° C. in Vero cells. Here is the method:
The test compounds were evaluated for anti-picornavirus activity by a multicycle cytopathic effect (CPE) reduction assay. The antiviral activity was initially determined using an MTS [3-(4,5-dimethylthiazol-2-yl)-5-(3-carboxymethoxyphenyl)-2-(4-sulfophenyl-2H-tetrazolium]-based CPE reduction assay.
In this regard, cells grown to confluence in 96-well plates were infected with 100 50% cell culture infective doses (CCID50) of virus. After an adsorption period of 2 hrs at 37° C., virus was removed and serial dilutions of the compounds were added. […] After removal of the medium, 90 μl of a culture medium and 10 μl of MTS-phenazine methosulfate (Promega, Leiden, The Netherlands) were added to each well. After an incubation period of 2 hrs at 37° C., the optical density (OD) of each well was read at 498 nm in a microplate reader.
CPE values for evaluating antiviral activity were calculated using the following Mathematic Formula 3: […]
The 50% effective concentration (EC50) and the 50% cytotoxic concentration (CC50) were defined as the concentrations of compound that offered 50% protection against virus-induced CPE and that killed cells by 50%, respectively, and were calculated using logarithmic interpolation.
As a reminder, the EC50 is the concentration at which the effect is half-maximal. In turn, `CC(C)c1ccc2c(c1)OC1(O)c3ccccc3C(=O)C21O` (stereo not drawn) [Example 10, 4b,9b-Dihydroxy-7-isopropyl-4bH-benzo[d]indeno[1,2-b]furan-10(9bH)-one] showed an EC50 of 21 ± 7.2 nM. In the case of `CC(C)c1ccc2c(c1)O[C@@]1(O)c3cccc(N)c3C(=O)[C@@]21O` [Example 46, 1-Amino-4b,9b-dihydroxy-7-isopropyl-4bH-benzo[d]indeno[1,2-b]furan-10(9bH)-one] it was 2.6 ± 1.2 nM; in that of `CC(=O)NC12C(=O)c3ccccc3C1(O)Oc1cc(C(C)C)ccc12` (stereo not drawn) [Example 66, N-(4b-Hydroxy-7-isopropyl-10-oxo-4b,10-dihydro-5-oxa-indeno[2,1-a]inden-9b-yl)-acetamide], 3.3 ± 1.3 nM.

Source of the values: patent US9890133B2 (priority 2011, dated 2018).
